This note sets out measurements from PubChem BioAssay (NCI).

The subject of the test is NCI-H322M lung. Description: inhibition of tumour cell growth, NCI panel, 48 h.

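These data come from cells grown in 96-well plates and exposed to compound for 48 hours at five concentrations. GI50: concentration for 50% inhibition of growth. TGI marks complete inhibition of growth.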

As to `O=C(N/N=C/c1ccoc1)c1[nH]c2ccc(Br)cc2c1-c1ccccc1`, the GI50 is 2.15 µM and the TGI came out at 16.3 µM.
Regarding `COc1ccc2[nH]c(O)c(N=NC(=O)Cn3c(-c4ccccc4)nc4cc(C)ccc43)c2c1`, the GI50 is 14.1 µM and the TGI amounted to 34 µM.
Consider `COc1cc2oc(-c3cccc(C(=O)Nc4ccc(Cl)cc4)c3)cc(=O)c2c(OCCNC(=O)[C@@H](N)CO)c1OC`, for which the GI50 was 13.4 µM and the TGI was 29.9 µM.
